# Test results: the BET-seq Pho4 binding data (Le et al. 2018)
# The list shows a part of the results. The energies were worked out here from pooled read counts, against the library average; single values are noisy.
# Biological target: T1, Pho4 (S. cerevisiae) (UniProt P07270)
# T1 sequence: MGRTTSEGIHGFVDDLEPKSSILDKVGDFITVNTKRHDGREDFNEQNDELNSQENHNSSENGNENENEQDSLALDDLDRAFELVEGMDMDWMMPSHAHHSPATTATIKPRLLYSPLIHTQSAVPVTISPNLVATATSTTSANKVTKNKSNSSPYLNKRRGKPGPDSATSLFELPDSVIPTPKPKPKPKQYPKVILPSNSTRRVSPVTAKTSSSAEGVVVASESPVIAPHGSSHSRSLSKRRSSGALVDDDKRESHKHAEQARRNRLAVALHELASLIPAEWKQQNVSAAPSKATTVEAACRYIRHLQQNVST
# Experiment: relative binding free energy (BET-seq); higher = weaker binding
# Settings: reference: library average
row,Sequence,relative binding free energy [kcal/mol]
1,GTAATCACGTGAGGAT,0.28
2,AATTTCACGTGCAGGG,0.25
3,CGTCTCACGTGGCGGG,0.17
4,TGTGGCACGTGACCTG,-0.02
5,AATGACACGTGTTAGT,0.08
6,GGGTACACGTGACTGG,0.11
7,ATATTCACGTGCATGT,0.2
8,GTGTACACGTGATCTG,0.12
9,ATTGGCACGTGTCTGA,-0.15
10,ATTGGCACGTGATTCG,0
11,GGTGGCACGTGGGAAA,-0.13
12,TGGTCCACGTGTCGTT,-0.07
13,TATGTCACGTGTGAGC,-0.1
14,TTAGTCACGTGCTCGG,-0.13
15,TGTGGCACGTGGCGCT,-0.19
16,GGATTCACGTGGGTGA,0.29
17,TAAAGCACGTGAAGGA,0.23
18,TAAGTCACGTGGGTCT,-0.08
19,ATTGACACGTGGAAGT,0.09
20,AGGGCCACGTGATTTG,-0.05
21,ATTAACACGTGTTTGG,-0.09
22,TGGTACACGTGGTTGT,0.06
23,TGGGTCACGTGCGTCG,0
24,TGGGACACGTGTTAGT,-0.01
25,TTTATCACGTGTATGG,0.12
26,ATGGTCACGTGATGGT,0.19

row,Sequence,relative binding free energy [kcal/mol]
1,TTAGTCACGTGTAACG,0.16
2,ACTGGCACGTGGGGCG,-0.18
3,GTTAGCACGTGGTTTA,0
4,GGGCTCACGTGGTTGG,0.24
5,TTTGACACGTGGTCGG,-0.07
6,ACTTGCACGTGGTAGA,0
7,CCTTGCACGTGATGGT,0.12
8,GTTTACACGTGGTGGT,0.08
9,GGTCTCACGTGTGTTT,0.32
10,ATATTCACGTGGGTGC,0.03
11,GGTGTCACGTGGGCTC,0.12
12,TCGTTCACGTGGGAAT,0.23
13,GCTGTCACGTGTGGGC,0.23
14,AGATGCACGTGGGGAA,-0.15
15,GGTGGCACGTGTGAAT,0.06
16,TTGAGCACGTGTGATG,-0.01
17,TTACTCACGTGTTGGT,0.17
18,GGGTTCACGTGGGCAG,0.27
19,AGGTGCACGTGAGCAG,0.08
20,AAGATCACGTGTAGGG,0.15
21,TTATGCACGTGCTTGT,-0.01
22,GTTGTCACGTGCTATG,0
23,AAGGTCACGTGGAAAT,0.21
24,TTTTGCACGTGTAGCA,0
25,CGTGCCACGTGGGAGG,-0.12
26,GGGTCCACGTGGATAT,0.1

row,Sequence,relative binding free energy [kcal/mol]
1,GTTACCACGTGTAGGG,0.06
2,ATGTTCACGTGTAGCC,0.43
3,GGTTGCACGTGTTCAT,-0.03
4,CGATTCACGTGATTTG,0.35
5,TAAAGCACGTGCTGGT,-0.04
6,TTCTACACGTGGGTTA,-0.08
7,GAGTGCACGTGTGCAT,0
8,AGGTCCACGTGGGGGT,-0.26
9,GTTCCCACGTGTTGGG,0
10,GTGGACACGTGCTGGA,-0.05
11,GTTTTCACGTGTGGGT,0.35
12,TGTGTCACGTGGTCGA,0.06
13,CTTTGCACGTGAGGTA,0.23
14,ATTTTCACGTGATTTA,0.29
15,GTGCGCACGTGGGAAG,-0.16
16,CAGTTCACGTGTTATT,0.23
17,TGGCGCACGTGTGAAT,0.15
18,GTGCGCACGTGGCGGG,-0.27
19,GTTGACACGTGGGGCA,-0.18
20,GGGCGCACGTGTATGA,0
21,GGTTTCACGTGCAGAT,0.33
22,GAAGTCACGTGTTGTT,0.21
23,ATAATCACGTGAATAG,0.46
24,TCTCTCACGTGGTGGT,0.23
25,AGCTTCACGTGGGATG,0.42
26,ATCGCCACGTGTTGGT,-0.02

row,Sequence,relative binding free energy [kcal/mol]
1,TGGGTCACGTGAGAGG,0.25
2,CAGGGCACGTGAAAGT,0.09
3,TATAACACGTGGTATG,-0.2
4,TCTTCCACGTGGGCGG,0.04
5,GTCTTCACGTGGTAGG,0.27
6,AGTAGCACGTGAATGG,0.14
7,TGGGTCACGTGTTTAC,0.03
8,ATAGGCACGTGCTTTT,-0.06
9,TGTGTCACGTGTGCTG,0.06
10,AGGTTCACGTGTGTCA,0.29
11,TAGTGCACGTGGCGAG,-0.18
12,TGCTGCACGTGAGATT,0.29
13,GGATGCACGTGTAGAG,0.01
14,GTGTCCACGTGGGGAA,-0.13
15,TGACTCACGTGGTAGT,0.08
16,TTAGTCACGTGACGTG,0.21
17,TCGGGCACGTGTTGCG,-0.23
18,TGTCACACGTGGTCGG,-0.05
19,TGATGCACGTGGGCTC,-0.1
20,TCGATCACGTGTATGG,0.19
21,TGAATCACGTGTAATT,0.18
22,GTGCTCACGTGAGATT,0.48
23,TTACACACGTGATGGT,0.12
24,ATGTTCACGTGTGCGA,0.27
25,GGGGACACGTGGTTTG,0.05
26,TGGGTCACGTGGGTGG,-0.02

row,Sequence,relative binding free energy [kcal/mol]
1,TAAATCACGTGTGATG,0.17
2,TAGAGCACGTGGGGTC,-0.2
3,AAATTCACGTGGTGTC,0.14
4,AAGGTCACGTGGTGGA,0.07
5,TTGAGCACGTGTTGGG,0.01
6,GTGCGCACGTGAAGGG,0.3
7,TTTAACACGTGAGGTA,0.28
8,AGTAACACGTGTTAAG,0.03
9,TAGTTCACGTGGAAAT,0.24
10,GTGCTCACGTGTAGTA,0.13
11,TAGTTCACGTGTAATT,0.34
12,ACGTACACGTGTGGGA,-0.01
13,TTGAACACGTGGGTCG,-0.09
14,ATTTTCACGTGGGCTT,0.15
15,AGTGTCACGTGCCGGA,-0.04
16,CGTTTCACGTGATATT,0.14
17,TGGTCCACGTGGATGT,-0.01
18,TAGTGCACGTGTAGGT,-0.05
19,TCTTTCACGTGAGAGT,0.39
20,GAATGCACGTGATGTT,0.2
21,TATGGCACGTGCGGAG,-0.16
22,TTAAACACGTGTGTGA,0.11
23,TTTGCCACGTGCGGAG,-0.05
24,TTTTTCACGTGTGTCC,0.29
25,TGAGGCACGTGAATAT,0.19
26,TGGCGCACGTGGACTG,-0.12

row,Sequence,relative binding free energy [kcal/mol]
1,GAAGGCACGTGAAGTG,0.24
2,GGATGCACGTGATAGA,0.15
3,CTGAACACGTGCGGGG,0.08
4,TGCAGCACGTGGGAGA,-0.19
5,AATATCACGTGTTGCG,0.21
6,GCGGGCACGTGGAGCG,-0.07
7,ACGAACACGTGGGTGG,-0.16
8,GTGCTCACGTGGGGTA,0.14
9,GATAGCACGTGGCTTT,-0.02
10,GGTTGCACGTGAATGG,0.41
11,TTTAGCACGTGCGTTT,-0.09
12,AGGTACACGTGAATTT,0.24
13,TTGGTCACGTGTTAGT,0.18
14,GGGAACACGTGATTTG,0.13
15,TGAGTCACGTGGTTTG,0.17
16,TTGGACACGTGCAGGA,-0.01
17,TGAAGCACGTGGGAGA,-0.14
18,TGTTTCACGTGCAGTA,0.2
19,GGCACCACGTGTGTTG,0.08
20,GGGCACACGTGGATGG,0.09
21,GGCATCACGTGTAGGT,0.29
22,TTGCGCACGTGTGTTT,-0.03
23,TATGTCACGTGATCGC,0.24
24,AGGTTCACGTGCCGTT,0.18
25,GCATGCACGTGAGGTG,0.27
26,AGGGGCACGTGGATTG,-0.21

row,Sequence,relative binding free energy [kcal/mol]
1,TTTATCACGTGGTGAG,0.09
2,GGATGCACGTGGTATT,-0.17
3,CGCGTCACGTGTGTGG,-0.04
4,GTAGCCACGTGGTATG,-0.02
5,TTTTACACGTGTGTGT,0.19
6,AGACGCACGTGGTTGT,-0.14
7,GCGTTCACGTGCTGGA,0.32
8,AAGGGCACGTGTGCAT,-0.16
9,CTTTCCACGTGGGTGG,-0.05
10,GCTAGCACGTGGGTTA,-0.25
11,GCATGCACGTGGGGCA,-0.04
12,TGCCGCACGTGGTGGT,-0.17
13,GAGTTCACGTGTGGGA,0.3
14,GTTCCCACGTGGGGGG,-0.28
15,GTGTTCACGTGATTAT,0.32
16,AGCGGCACGTGGGACG,-0.19
17,CATCTCACGTGTTGGT,0.33
18,TATTACACGTGGAGGT,0.09
19,AGGACCACGTGTTGTT,-0.06
20,TATCTCACGTGGATGT,0.34
21,TTATTCACGTGTGTAA,0.34
22,ATGTACACGTGTCGTG,-0.13
23,ATGTACACGTGAAGGG,0.38
24,TTATGCACGTGGTAGG,-0.05
25,TATGTCACGTGACAAG,0.21
26,GATTACACGTGAATGG,0.35

row,Sequence,relative binding free energy [kcal/mol]
1,TCAGACACGTGGTGGG,-0.01
2,TTGGTCACGTGGCAGA,0
3,TTCTTCACGTGGTTCG,0.24
4,TTTTGCACGTGCGTCA,-0.08
5,AACGGCACGTGGTGGC,-0.14
6,TAACTCACGTGTGGGA,0.25
7,ATCTGCACGTGGTCGG,-0.17
8,GGCCGCACGTGGGGTT,-0.16
9,GTGGGCACGTGACGGA,-0.06
10,GTATGCACGTGTGCGC,0
11,GATTGCACGTGGAGTT,0.05
12,GTGTACACGTGGGACT,0.07
13,TCCGGCACGTGGGTCG,-0.17
14,GTTGTCACGTGTTGAG,0.21
15,TGTTGCACGTGCGGCA,-0.15
16,GGTATCACGTGCGGGT,0.05
17,TTGTTCACGTGACTAG,0.33
18,TGGGGCACGTGCTAGT,-0.16
19,CGGGGCACGTGTGAGT,0.04
20,AGTTTCACGTGCAGGG,0.25
21,GGGCGCACGTGTATAG,-0.08
22,TGGAACACGTGTTGGT,0.17
23,GGAGGCACGTGTTCGT,-0.1
24,CGCGGCACGTGTGGAG,-0.1
25,TGAAACACGTGTTAGT,-0.06
26,AATTGCACGTGTCTAT,0.1

row,Sequence,relative binding free energy [kcal/mol]
1,CATAGCACGTGTTTGG,-0.02
2,ATGGGCACGTGTGGAG,-0.11
3,TTCGTCACGTGTTTCT,-0.01
4,ATTACCACGTGATGGG,0
5,ATGCACACGTGGGTCG,0.01
6,TGGATCACGTGTGGAG,0.27
7,GTCTTCACGTGGGGAT,0.15
8,AGGTGCACGTGCTTTG,-0.14
9,GTTTACACGTGGCGTG,0.13
10,CAAGGCACGTGAGTAG,0.19
11,AGAGTCACGTGAAGGG,0.33
12,ATGGGCACGTGGTGAT,-0.14
13,ATGGTCACGTGAGGGG,0.31
14,GGCTGCACGTGATATG,0.21
15,TAGTGCACGTGGTATG,-0.11
16,GGTTCCACGTGTGGCA,0.11
17,TTCTTCACGTGCGTGG,0.14
18,CGGCGCACGTGGTGGC,-0.27
19,TATGGCACGTGGTGTA,-0.21
20,TTGGTCACGTGCCTTT,-0.13
21,TCGGGCACGTGCGGTG,-0.11
22,TTGGACACGTGGGGTC,-0.09
